# Measured values from the supplement of paper PMC3334620.
# In all, about 33,000 sequences were measured (“E-score (-0.5 to 0.5)”: median about -0.01, highest 2% from about 0.26 on). This is one part of the list.
# Target: Ste12 (UniProt P13574)
# Assay: PBM E-score (8-mer binding enrichment) (E-score (-0.5 to 0.5)); higher = stronger / more preferred TF binding; most listed sequences are background and not binding sites
# Settings: protein concentration: 200 nM; construct: GST-DNA-binding domain
# Outline: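 E-scores (a modified Wilcoxon-Mann-Whitney statistic) were assigned by the Universal PBM Analysis Suite to every ungapped eight-base word pooled with its reverse complement. The input came from universal all-10-mer Agilent arrays made double-stranded by primer extension and probed with GST-tagged yeast transcription factors at about 100-200 nM. Fluorescent anti-GST detected bound protein, and masliner normalised the scans.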
row,Sequence,PBM E-score
1,ACTCCGCT,-0.115
2,CGTGCCTA,-0.201
3,CTCAGGCC,-0.097
4,ATCCCCCC,-0.159
5,ACCGCAAC,0.1
6,CGTATATC,-0.068
7,TCAATCAA,0.21
8,AGGTTAGA,-0.0279
9,AGTTCACA,0.0194
10,ACTATCAT,0.164
11,ATGGAGTG,-0.122
12,AAGTGAAG,0.0915
13,AAACGGCT,-0.115
14,GCCATTAA,-0.0508
15,GCATGCAC,-0.201
16,CCGAATCA,0.0251
17,TAGGGGAA,-0.0488
18,ACAGTCCC,-0.178
19,CCTTGAAG,-0.00773
20,ACCCCATA,0.048
21,AGAAGGAT,-0.202
22,TACGTGCA,0.0392
23,CACATCAA,0.185
24,GGGTCGTA,-0.11
25,GACACGAA,0.032

row,Sequence,PBM E-score
1,GAATCAAC,0.0498
2,AGCTCTAG,-0.16
3,CATGGGTC,-0.111
4,GCGTTATA,-0.0221
5,GACTCCCA,-0.0191
6,AGACTTCA,-0.0614
7,AATAAGAA,0.276
8,AAAGAATA,0.195
9,GTCCTCTA,-0.371
10,TCCCGACA,0.127
11,CTTCGTGC,0.0941
12,AGGGCGTC,-0.15
13,ATGGGCCC,-0.0824
14,CAACGGAC,-0.116
15,CGCTTGCA,0.181
16,CGCCGCAG,0.0202
17,ATTTTACA,0.113
18,CTCCCCTA,-0.0541
19,TAGCCTCA,-0.14
20,CTCAATCC,0.0296
21,GGCGACTA,-0.213
22,ACGCCAGC,-0.206
23,AGTCGATC,-0.0899
24,TCCTAACA,-0.0578
25,TACCACAA,0.185

row,Sequence,PBM E-score
1,AGCAGGCA,-0.153
2,ACGACAAA,0.21
3,CTTCAGCC,-0.187
4,ACGTAGCG,-0.0127
5,AAAACACC,0.213
6,CGAGTTAA,0.112
7,CACTGAAG,-0.03
8,CGGGCCTC,0.0175
9,CAAGGTCG,-0.0128
10,AAGAGTCT,-0.126
11,CCATTAGC,-0.0312
12,CGATTCAG,0.0921
13,GCTGTCTA,-0.262
14,AATTGGTA,0.0529
15,AAGTTATA,0.222
16,GGCGTATA,0.0675
17,ACCGAACC,-0.13
18,ATGCTAGA,-0.0991
19,GATTAACA,0.0472
20,ACAAAGCG,0.0772
21,GCTAGCGA,-0.0311
22,ACGGAGAC,-0.029
23,TCTAGTAA,0.0451
24,CATCCTGG,0.0367
25,ATTACCGG,0.00155

row,Sequence,PBM E-score
1,ATGGATGG,-0.0589
2,CGGCTCGA,-0.106
3,AGACCTGG,-0.132
4,TCATTAGA,0.111
5,ATTACTAC,-0.103
6,TCGCGCCA,0.102
7,ATTAGCAG,-0.0098
8,AGTTTCGA,0.11
9,CCATTGGC,-0.0456
10,CGTAGGAA,0.00401
11,ACAGCCGT,-0.0628
12,CTAACCGC,-0.0118
13,CCGGAGAG,-0.0466
14,AGGTGGTG,0.0096
15,CTATAGAA,-0.0569
16,GATGATCC,-0.232
17,GGTATTTA,0.167
18,AAAAGAAG,0.072
19,ACGGACCG,-0.187
20,GAACTTGA,0.142
21,ATGCTTTC,0.075
22,ATGATGTA,0.146
23,AGCACATA,-0.0905
24,ATTTCCCC,0.142
25,GATGCACA,-0.112

row,Sequence,PBM E-score
1,GTTGTCGA,-0.00271
2,ACTCGGGC,-0.196
3,TACCTACA,-0.0205
4,AACTTTCC,0.0828
5,ATAAGAAA,0.195
6,ACTAACCG,-0.0839
7,ACCCGAGT,-0.0216
8,TAGTCGGA,-0.006
9,AACGAAAA,0.213
10,AACGAGAA,0.128
11,CTTACGTA,-0.24
12,CTAACTCC,-0.0702
13,TTATCGAA,0.196
14,ATCGTAGA,-0.129
15,CCGGGCTC,-0.103
16,ACGCCAAG,0.0325
17,GAACGAGC,-0.105
18,AGGGTCGC,-0.00242
19,AATAAGCA,-0.0033
20,AGGACACG,-0.307
21,AATTATCA,0.203
22,AAGAAGCG,-0.162
23,CGATTCAC,-0.0898
24,AACTGGAC,0.0281
25,ATACGCAA,0.0223

row,Sequence,PBM E-score
1,ACTGGGGA,-0.161
2,AGTCTTGA,-0.105
3,ATGCCTAA,-0.192
4,ACCGCCTG,-0.127
5,ATCTACCA,0.107
6,GAGTGACA,0.0563
7,GAGGACTA,-0.0759
8,CTAACGTC,-0.0422
9,CGCTGGAG,-0.0992
10,CACGAACG,-0.0651
11,AACCTCCA,-0.228
12,GACTGCGA,0.0971
13,GATGGTGA,0.118
14,CCCACCAC,-0.0565
15,GCGGGAAC,-0.188
16,CAAGCTGG,-0.0954
17,CCAACGCC,-0.0735
18,ATTGCAAC,0.105
19,AAACCGGG,0.194
20,TAGATAGA,-0.0561
21,TCATTCGA,0.0623
22,AACCCCCG,-0.133
23,AACCCCAG,0.0169
24,AACTGCGA,-0.0262
25,ATTTTTCC,0.204

row,Sequence,PBM E-score
1,CTGGAAGA,-0.0572
2,AGAAAGAA,0.151
3,GCTGCTGA,-0.0225
4,AGGTGCGA,-0.00836
5,CTGACCGA,-0.00851
6,GCTCTCCA,-0.149
7,AACTTTCA,0.118
8,GCAGCGTA,-0.201
9,AAAGGCCT,-0.254
10,AAAGAACC,0.132
11,ATTTAGAC,0.00579
12,GCGCGTAA,-0.0247
13,TACTGATA,0.198
14,AGTCACAC,-0.0427
15,CTTTTTGC,0.228
16,AGATGTAG,-0.0399
17,AGGGATAG,-0.00141
18,AGATCGGC,-0.13
19,CTAGTTCA,0.0304
20,GAACCTTC,-0.0978
21,GAAAGCGC,-0.156
22,AACCAGTG,-0.113
